Test results taken from PubChem BioAssay AID493208 (National Center for Advancing Translational Sciences (NCATS), 2011).
Screen size: about 44,000 compounds; about 340 (0.77%) were called active. Another 5% or so got no clear call; they are omitted. Calls come from the whole dose curve; as a rule, active = well fitted inhibition curve with a large enough effect; inconclusive = small, poorly fitted or top-dose-only effect; inactive = flat fitted curve, though single readings scatter. Some of the results follow.

Assay: Acumen qHTS Assay for Inhibitors of the mTORC1 Signaling Pathway in MEF (Tsc2-/-, p53-/-) Cells: Sytravon; note: nearly all actives have a fitted effect of over 50% in size;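 for activity change, negative = inhibition: plate controls were DMSO for no effect and rapamycin for full effect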
Details: phospho-rpS6 immunofluorescence/PI, 24 h; series mostly up to 38.3 µM; activity change, negative = inhibition: at the top concentration
How it was run: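 Immunofluorescence of rpS6 phosphorylation in Tsc2-/-, p53-/- MEFs after 24 h compound exposure, normalized to propidium iodide signal. Activity is expressed as % positive cells, thresholded with 7.5 nM rapamycin.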
Potency is the fitted concentration of half-maximal effect.

SMILES	activity change, negative = inhibition	Potency
OCCN1CCN(c2ncnc3c2cnn3-c2cccc(Cl)c2)CC1	inactive: 11.5%	
Cc1ccc(Cl)cc1NC(=O)Cn1nnc2sc3c(c2c1=O)CCC(C(C)(C)C)C3 (stereo not given)	inactive: 2.72%	
Cc1cccc(N(C)S(=O)(=O)c2nnc(NC(=O)C(C)(C)C)s2)c1	inactive: -2.92%	
COc1ccc(CCNc2ncnc3c2cnn3-c2ccc(F)cc2)cc1	inactive: 16.4%	
Brc1ccc(CN2CCc3nc(Nc4ccccc4)ncc3C2)s1	inactive: 0%	
COc1ccc(N(Cc2cc3cc(OC)ccc3[nH]c2=O)C(=O)c2cccc(Cl)c2)cc1	inactive: 5.71%	
COc1ccc(OC)c(CNC(=O)c2cc3c(=O)oc4ccc(C)cc4c3s2)c1	inactive: -1.53%	
COCCn1c(CCC(=O)Nc2ccc(OC)c(OC)c2)nc2cccnc21	inactive: -7.18%	
O=C(NCc1ccccc1Cl)c1cc(-c2ccccc2)n[nH]1	inactive: -8.05%	
O=C(Cn1c2ncccc2c(=O)n1-c1ccccc1)NCc1ccccc1	inactive: 6.5%	
Cc1nc(-c2ccccc2)sc1-c1ccc(SCC(=O)Nc2ccccc2)nn1	inactive: 5.08%	
Cc1oc(-c2cccc(Br)c2)nc1CN1CCC(C(=O)NCc2ccccc2)CC1	inactive: 2.72%	
COc1cccc(CNC(=O)Cc2c(C)c3cc4c(C)coc4cc3oc2=O)c1	inactive: 0.145%	
Cc1cc(C)cc(NC(=O)CSc2nccn2C2CCCC2)c1	inactive: -0.979%	
COc1cccc(NC(=O)c2csc3c2CCCCC3)c1	inactive: -1.68%	
CCc1ccc(NC(=O)N2CCN(c3nnc(C)c4c(C)n(-c5ccc(Cl)cc5)nc34)CC2)cc1	inactive: -14.6%	
Cc1ccc(CNCc2ccc3c(c2)n(C)c(=O)n3C)cc1	inactive: -10.8%	
O=C(CCNS(=O)(=O)c1ccc(Br)s1)Nc1ccc(Br)cc1	inactive: -3.8%	
c1ccc(Nc2c(-c3ccccc3)nc3ncccn23)cc1	inactive: -8.59%	
CCN1C(=O)c2ccccc2Sc2ccc(NC(=O)Cc3ccc(OC)c(OC)c3)cc21	inactive: -10.4%	
COc1ccc2c(c1)c(=O)c(S(=O)(=O)c1ccc(F)cc1)cn2CC(=O)Nc1ccc(C)cc1C	inactive: 5.07%	
COc1cc(NS(=O)(=O)c2ccc(NC(=O)COc3ccc(Cl)cc3Cl)cc2)nc(OC)n1	inactive: 16.1%	
CCOc1cccc(CC(=O)NCc2ccc3c(c2)CCN3C(=O)c2cccc(C)c2)c1OCC	inactive: -20.9%	
COc1ccc(CN(C(=O)Nc2cc(C)ccc2C)C2CCN(C(C)=O)CC2)cc1	inactive: -4.74%	

SMILES	activity change, negative = inhibition	Potency
CCOc1ccccc1N(CC)C(=O)Cn1ncc2c1-c1ccccc1OC2	inactive: -8.63%	
CCOc1ccc(NC(=O)CSc2nc(-c3ccccc3)c3cc(OCC)ccc3n2)cc1	inactive: 2.84%	
COc1ccc(CNC(=O)c2cnc3sc4cc(OC)ccc4n3c2=O)cc1	inactive: -2.81%	
O=C(NCc1ccccc1Cl)C(=O)NCC(c1ccc2c(c1)OCO2)N1CCOCC1 (stereo not given)	inactive: -1.29%	
CCC(CC)C(=O)N1CCc2cc(OC)c(OC)cc2C1COc1ccc2c(C)cc(=O)oc2c1 (stereo not given)	inactive: 0.715%	
O=C(c1cc(S(=O)(=O)N2CCCC2)c[nH]1)N1CCN(c2cccc(Cl)c2)CC1	inactive: -15.7%	
CCOc1ccc2nc(N(Cc3cccnc3)C(=O)c3ccco3)sc2c1	inactive: 0.304%	
CCCSc1ncc(Cl)c(C(=O)NCc2ccc(C)cc2)n1	inactive: -1.47%	
COc1ccc(CNC(=O)CCS(=O)(=O)c2cc3c4c(c2)CCN4C(=O)CC3)cc1OC	inactive: 2.66%	
Cc1cc(Cl)ccc1NC(=O)CCS(=O)(=O)c1ccc2c(c1)CC(C)N2C(=O)C1CC1 (stereo not given)	inactive: -0.859%	
COc1ccc(C2C(C(=O)Nc3cccnc3)=C(C)Nc3nc(-c4ccc(OC)c(OC)c4)nn32)cc1 (stereo not given)	inactive: -0.71%	
O=C(Nc1cc(Cl)ccc1O)c1cc(-c2ccc3c(c2)OCO3)on1	inactive: -5.37%	
Cc1c(C(=O)N2CCCC2)oc2c1-c1nn(CC(=O)NCc3ccccc3F)cc1CC2	inactive: -0.463%	
CCc1nn2c(=O)c(S(=O)(=O)Nc3ccc(C)cc3C)c(C)nc2s1	inactive: -0.0809%	
COc1ccc(-c2nc(CSCC(=O)NCCc3ccc(OC)c(OC)c3)c(C)o2)cc1	inactive: 0.253%	
Cc1sc(NC(=O)C2c3ccccc3Oc3ccccc32)c(C(=O)OC(C)C)c1C	inactive: -5.21%	
Cc1ccc(S(=O)(=O)c2nnn3c2nc(N(C)Cc2ccccc2)c2cc(Cl)ccc23)cc1C	inactive: -9.53%	
CC(C)NC(=O)C1=CC(c2ccc3c(c2)OCO3)=NS(=O)(=O)N1C	inactive: 0.776%	
COc1ccccc1CNC(=O)c1cc2cccc3c2n1CCS3	inactive: -0.505%	
CCCN1CCN(c2ncnc3sc(C(=O)Nc4ccc(OC(F)(F)F)cc4)c(C)c23)CC1		active: 16.5 µM
CC1CCN(c2nc3ccccc3nc2SCC(=O)Nc2ccccc2C(C)C)CC1	inactive: -9.21%	
CC(=O)c1ccc(NC(=O)Cn2c(=O)nc(-c3ccccc3)c3ccccc32)cc1	inactive: 5.48%	
O=C(CS(=O)(=O)c1cccc2nsnc12)N1CCN(c2ccc(F)cc2)CC1	inactive: 4.35%	
CCOc1ccc(C(=O)c2cn(CC(=O)Nc3ccc(C)c(Cl)c3)c3ccc(OCC)cc3c2=O)cc1	inactive: -2.67%	

SMILES	activity change, negative = inhibition	Potency
CCCCC(=O)OCc1cc(=O)n2nc(C3CC3)sc2n1	inactive: -12.7%	
O=C(NC1(C(F)(F)F)N=C(c2ccccc2)N(Cc2ccccc2)C1=O)c1ccc(F)cc1 (stereo not given)	inactive: -14.4%	
Cc1cc(-c2ccc(C)c(S(=O)(=O)Nc3ccc(C)c(N(C)C)c3)c2)on1	inactive: 2.78%	
CCOc1ccc(CCNC(=O)c2cc3n(n2)CCCN(Cc2ccc(C)cc2)C3=O)cc1OCC	inactive: 0%	
Cn1cnc(S(=O)(=O)N2CCC(C(=O)Nc3ccc(OC(F)(F)F)cc3)CC2)c1	inactive: 0%	
CCN(CC)c1cc(NC2CCCCC2)c2c3c(onc13)-c1ccccc1C2=O	inactive: 0.307%	
CC1CCN(S(=O)(=O)c2ccc3c(c2)N(CC(=O)N(C)Cc2ccccc2)C(=O)CO3)CC1	inactive: 1.18%	
O=c1c2sc3ccccc3c2n(Cc2cccc(Cl)c2)c(=O)n1Cc1ccc(F)cc1	inactive: -3.36%	
COc1cccc(CNC(=O)C2CCCN(c3nn4cc(-c5ccc(C)cc5)nc4s3)C2)c1 (stereo not given)	inactive: -5.37%	
Cc1cc(C)c(NC(=O)Cn2nnc3sc4c(c3c2=O)CCC(C(C)(C)C)C4)c(C)c1 (stereo not given)	inactive: 1.92%	
O=C(c1ccc2c(c1)N(Cc1ccccc1)C(=O)c1ccccc1S2(=O)=O)N1CCC(Cc2ccccc2)CC1	inactive: -0.015%	
COc1cc(C2c3c(-c4ccccc4O)n[nH]c3C(=O)N2Cc2ccncc2)cc(OC)c1OC (stereo not given)	inactive: 1.73%	
COc1ccc(CNC(=O)C2CCN(C(=O)N3CCOc4ccc(C)cc43)CC2)cc1	inactive: -1.61%	
CC1CCCN(C(=O)c2ccc(CSc3nc4ccncc4n3Cc3ccccc3)cc2)C1 (stereo not given)	inactive: -0.889%	
O=C(NCc1ccc(Cl)cc1)c1cc2cccc3c2n1CCS3	inactive: 0.53%	
CCc1cc(C(=O)N2CCN(c3ccccc3)CC2)no1	inactive: -0.0697%	
COc1ccccc1N1CCN(c2c3c(nc4nncn24)CCC3)CC1	inactive: -2.28%	
CC(C)(C)NC(=O)Cn1cc(S(=O)(=O)Cc2ccccc2Cl)c2ccccc21	inactive: 1.41%	
Cc1cccc(-n2c(=O)c3c(c4cc(C)ccc4n3C)n(CC(=O)Nc3ccc(C)c(C)c3)c2=O)c1	inactive: -0.68%	
COC(=O)c1sccc1S(=O)(=O)N(CC(=O)NCc1ccc(F)cc1)c1ccccc1	inactive: -1.11%	
Cc1cccc(NC(=O)Cn2c(=O)n(Cc3nc(-c4ccccc4)no3)c(=O)c3ccccc32)c1	inactive: -1.37%	
CCOC(=O)Cn1c(=N)n(CCOc2ccc(OC)cc2)c2ccccc21	inactive: 3.05%	
COc1ccc(-c2nc(SCC(=O)NCC3CCCO3)c(-c3ccc(C)cc3)[nH]2)cc1OC (stereo not given)	inactive: 9.02%	
COc1ccc(NC(=O)N2CCN(Cc3nc4ccc(C)cc4o3)CC2)cc1OC	inactive: 0%	

SMILES	activity change, negative = inhibition	Potency
CCCCNC(=O)CN1CCN(c2ccc(NC(=O)c3ccc(OC)cc3)cc2C(=O)O)CC1	inactive: -0.225%	
Cc1ccc(N(C)S(=O)(=O)c2nnc(NC(=O)c3ccco3)s2)cc1	inactive: -2.22%	
COc1ccc(-c2c(C#N)c(SCC(=O)Nc3ccc(C)c(C)c3)nc(C)c2C(=O)Nc2ccccc2)cc1OC	inactive: 8.97%	
CCn1cc(C(=O)NCCc2ccc(OC)c(OC)c2)c(=O)c2cc(S(=O)(=O)N3CCOCC3)ccc21	inactive: -11.9%	
Cc1ccc(C(=O)Nc2nnc(S(=O)(=O)N(C)Cc3ccco3)s2)cc1	inactive: -5.49%	
Cc1cccc(-n2nnc(-c3nc(-c4ccccc4)no3)c2N)c1C	inactive: -9.75%	
COc1cccc(CNC(=O)c2ccc3c(c2)nc2n3CCOC2)c1OC	inactive: 3.99%	
Cc1ccc(C)c(NC(=O)CN2CCN(C3CCCCC3)C(=O)C2=O)c1	inactive: 0%	
CCc1nc2c(cnn2-c2ccc(C)cc2)c(=O)n1-c1ccc(C)cc1	inactive: 1.33%	
O=C(Nc1cccc(C(F)(F)F)c1)c1cc(-c2ccc(Cl)cc2)on1	inactive: -24.7%	
COc1ccc(S(=O)(=O)c2c(SC)nn(CC(=O)Nc3ccc(C)c(Cl)c3)c2N)cc1	inactive: -20.5%	
Cc1ccc(-c2noc(C(C)NC(=O)c3ccco3)n2)cc1 (stereo not given)	inactive: -3.01%	
COCCCNC(=O)CSc1nc2cc3c(cc2c(=O)n1CCCCCC(=O)NCCc1ccc(OC)c(OC)c1)OCO3	inactive: 1.02%	
CC(C)(C)C1CCc2nc(NC(=O)COc3ccccc3[N+](=O)[O-])sc2C1 (stereo not given)	inactive: 0.487%	
COc1ccc2c(CNC3CCCC3)c(C(=O)O)n(Cc3ccccc3C)c2c1	inactive: -5.25%	
CCc1nn2c(=O)cc(COC(=O)c3cccc(NC(=O)c4ccccc4C)c3)nc2s1	inactive: 10.2%	
CC1=C(c2ccc(C)cc2)S(=O)(=O)N(Cc2ccc(C(=O)NCc3ccccc3)cc2)C1=O	inactive: 0.004%	
O=C(NCc1ccc(F)cc1)c1ccc2c(c1)N(Cc1c(F)cccc1Cl)C(=O)CS2	inactive: -8.72%	
Cc1cc(C)c2c(=O)cc(C(=O)Nc3sc4c(c3C#N)CCCC4)oc2c1	inactive: 1.87%	
Cc1ccccc1NC(=O)CN1C(=O)C2(SCC(=O)N2c2ccc(F)cc2)c2ccccc21 (stereo not given)	inactive: -5.23%	
COc1ccc2c(c1)c(CC(=O)Nc1cccc(F)c1C)c(C)n2C(=O)c1ccc(Cl)cc1	inactive: 9.78%	
COc1cccc(-n2ccn(CC(=O)Nc3ccccc3F)c(=O)c2=O)c1	inactive: 8.39%	
COc1ccc(C2=C(C)C(N3CCC(C(=O)NCc4ccco4)CC3)=NS2(=O)=O)cc1	inactive: 0%	
